Read-outs that look alike come from different tables or passages of the source.
Legend:
[1] = biological target: T1, CD98 on cells (SKOV3, H446, RAMOS, MOLM13) (UniProt P08195 2-529, limits assumed); assay: cell-based or functional assay
T1 sequence (looked up): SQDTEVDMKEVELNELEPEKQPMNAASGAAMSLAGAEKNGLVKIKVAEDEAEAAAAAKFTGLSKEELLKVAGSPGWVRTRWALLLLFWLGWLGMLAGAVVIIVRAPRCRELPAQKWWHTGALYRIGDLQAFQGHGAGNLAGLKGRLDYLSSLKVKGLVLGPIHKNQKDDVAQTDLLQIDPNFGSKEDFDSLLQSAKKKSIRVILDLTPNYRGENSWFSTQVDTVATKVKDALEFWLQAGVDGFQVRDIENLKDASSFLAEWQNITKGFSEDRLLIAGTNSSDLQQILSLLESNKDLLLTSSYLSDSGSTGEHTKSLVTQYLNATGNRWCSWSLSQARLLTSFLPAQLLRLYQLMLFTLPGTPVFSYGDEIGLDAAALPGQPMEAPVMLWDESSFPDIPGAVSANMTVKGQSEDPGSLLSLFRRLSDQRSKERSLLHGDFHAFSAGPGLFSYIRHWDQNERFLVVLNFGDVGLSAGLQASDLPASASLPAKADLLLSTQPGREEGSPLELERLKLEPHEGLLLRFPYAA

CD98 (purified antigen) [2] = biological target: T2, CD98 (purified antigen) (UniProt P08195 105-529, limits assumed); assay: SPR (BioRad ProteOn XPR 36), ADC captured on goat anti-human Fc surface, 25 C, 1:1 model
T2 construct: Only called 'its purified antigen, CD98'; construct not described
T2 sequence (looked up): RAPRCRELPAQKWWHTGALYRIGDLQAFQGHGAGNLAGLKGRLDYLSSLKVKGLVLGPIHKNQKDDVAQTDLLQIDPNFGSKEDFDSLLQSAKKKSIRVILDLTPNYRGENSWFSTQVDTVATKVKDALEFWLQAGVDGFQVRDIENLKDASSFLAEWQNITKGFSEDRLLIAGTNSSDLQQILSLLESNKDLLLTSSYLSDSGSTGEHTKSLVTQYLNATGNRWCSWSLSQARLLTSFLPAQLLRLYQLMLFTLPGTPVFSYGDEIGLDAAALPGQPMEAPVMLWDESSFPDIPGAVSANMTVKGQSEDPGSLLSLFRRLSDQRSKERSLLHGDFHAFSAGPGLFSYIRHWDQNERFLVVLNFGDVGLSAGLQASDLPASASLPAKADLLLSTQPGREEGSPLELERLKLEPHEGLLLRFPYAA

[3] = biological target: T1, CD98 on cells (SKOV3, H446, RAMOS, …); assay: cell-based or functional assay; remark: listed apart in the source
CD98 (purified antigen) [4] = biological target: T2, CD98 (purified antigen); assay: SPR (BioRad ProteOn XPR 36), antibody captured on goat anti-human Fc surface, 25 C, 1:1 model
[5] = biological target: T1, CD98 on cells (SKOV3, H446, RAMOS, …); assay: cell-based or functional assay; remark: listed apart in the source
CD98 on tumour cells = biological target: T3, CD98 on tumour cells (UniProt P08195 2-529, limits assumed); assay: cell-based or functional assay
T3 sequence (looked up): T1 sequence (looked up)

B1: IGN523-DBM(C6)-MMAF (antibody, human IgG1, kappa)
heavy: QVQLVQSGAEVKKPGSSVKVSCKASGNAFTNYLIEWVRQAPGQGLEWMGVINPGSGITNYNEKFKGKATITADKSTSTAYMELSSLRSEDTAVYYCSGSANWFAYWGQGTLVTVSSASTKGPSVFPLAPSSKSTSGGTAALGCLVKDYFPEPVTVSWNSGALTSGVHTFPAVLQSSGLYSLSSVVTVPSSSLGTQTYICNVNHKPSNTKVDKRV[gap - human IgG1 Fc]
light: DIVMTQSPDSLAVSLGERATINCKSSQSLLYSSNQKNYLAWYQQKPGQPPKLLIYWASTRDSGVPDRFTGSGSGTDFTLTISSLQAEDVAVYYCQRYYGYPWTFGGGTKVEIKRTVAAPSVFIFPPSDEQLKSGTASVVCLLNNFYPREAKVQWKVDNALQSGNSQESVTEQDSKDSTYSLSSTLTLSKADYEKHKVYACEVTHQGLSSPVTKSFNRGEC
modifications: DBM(C6)-MMAF bridging the two cysteines of each opened interchain disulfide; DAR 4
notes: Antibody-drug conjugate of IGN523 (IgG1); also called DBM(C6)-MMAF-conjugated IGN523
- ADC Assays-IC50 Data (nM), H446 cells (Cell-Titer Glo, 3 days) [1]: 0.05 nM
- ADC Assays-IC50 Data (nM), SKOV3 cells (Cell-Titer Glo, 3 days) [1]: 0.1 nM
- Kd (CD98 (purified antigen) [2]): 180 pM

B2: IGN523(C226AC229A)-CPM(C6)-Val-Ala-PBD (antibody, human IgG1, kappa)
heavy: QVQLVQSGAEVKKPGSSVKVSCKASGNAFTNYLIEWVRQAPGQGLEWMGVINPGSGITNYNEKFKGKATITADKSTSTAYMELSSLRSEDTAVYYCSGSANWFAYWGQGTLVTVSSASTKGPSVFPLAPSSKSTSGGTAALGCLVKDYFPEPVTVSWNSGALTSGVHTFPAVLQSSGLYSLSSVVTVPSSSLGTQTYICNVNHKPSNTKVDKRV[gap - human IgG1 Fc with C226A C229A (EU numbers)]
light: B1 light
modifications: CPM(C6)-Val-Ala-PBD bridging the heavy chain-light chain interchain disulfide cysteines; DAR 2
- MOLM13 IC50 (nM), in vitro cytotoxicity [3]: 4e-05 nM

B3: IGN523 (antibody, human IgG1, kappa)
heavy: B1 heavy
light: B1 light
notes: Unconjugated human IgG1; also called anti-CD98 antibody
- Kd (CD98 (purified antigen) [4]): 140 pM

B4: IGN523-CPM(C6)-MMAF (antibody, human IgG1, kappa)
heavy: B1 heavy
light: B1 light
modifications: CPM(C6)-MMAF bridging the two cysteines of each opened interchain disulfide; DAR 4
- ADC Assays - IC50 Data (nM), RAMOS cells (Cell-Titer Glo, 3 days) [5]: 0.09 nM
- ADC Assays-IC50 Data (nM), H446 cells (Cell-Titer Glo, 3 days) [5]: 0.01 nM
- ADC Assays-IC50 Data (nM), SKOV3 cells (Cell-Titer Glo, 3 days) [5]: 0.09 nM

B5: IGN523-DBM(C6)-MMAF (antibody)
heavy: B1 heavy
light: B1 light
modifications: DBM(C6)-MMAF bridging the heavy-light interchain disulfide cysteines; DBM(C6)-MMAF bridging the two cysteines of each opened interchain disulfide; DAR 4
notes: as for B1
- IC50, SKOV-3 cell viability (Cell-Titer Glo, three days) (CD98 on tumour cells): 112 pM

Source: patent publication US20190209704A1 (IGENICA BIOTHERAPEUTICS, published 2019)
